The source of these data is US20210047410A1 (ONCOLMMUNE, published 2021).

For orientation: EC50 (read off the curve) means the concentration giving half of the maximal effect. A high value points to a less potent agent.

Experiment [1] has as its target T1, GFP-tagged human B7-1 on CHO cells (human, UniProt P33681 35-288).
T1 construct: whole, on cells; also called B7-1-GFP; not shown: C-GFPSpark tag
T1 sequence (looked up): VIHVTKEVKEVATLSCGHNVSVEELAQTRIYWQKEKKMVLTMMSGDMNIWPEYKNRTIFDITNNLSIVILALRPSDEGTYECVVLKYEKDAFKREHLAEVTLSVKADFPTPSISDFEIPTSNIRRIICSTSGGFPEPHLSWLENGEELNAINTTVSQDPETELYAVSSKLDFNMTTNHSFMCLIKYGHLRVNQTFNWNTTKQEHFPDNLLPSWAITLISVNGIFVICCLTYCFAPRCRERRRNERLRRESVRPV
Nature of the experiment: flow cytometry, cell-cell interaction: B7-1-GFP CHO cells and hCTLA-4 Y201V-OFP 293T cells co-incubated at 4 °C for 2 h [f]. (A flow cytometer gives signals particle by particle.)

Experiment [2] addresses T2, GFP-tagged human B7-2 on CHO cells (human, UniProt P42081 24-329).
T2 construct: whole, on cells; also called B7-2-GFP; hB7-2-GFP-CHO; not shown: C-GFPSpark tag
T2 sequence (looked up): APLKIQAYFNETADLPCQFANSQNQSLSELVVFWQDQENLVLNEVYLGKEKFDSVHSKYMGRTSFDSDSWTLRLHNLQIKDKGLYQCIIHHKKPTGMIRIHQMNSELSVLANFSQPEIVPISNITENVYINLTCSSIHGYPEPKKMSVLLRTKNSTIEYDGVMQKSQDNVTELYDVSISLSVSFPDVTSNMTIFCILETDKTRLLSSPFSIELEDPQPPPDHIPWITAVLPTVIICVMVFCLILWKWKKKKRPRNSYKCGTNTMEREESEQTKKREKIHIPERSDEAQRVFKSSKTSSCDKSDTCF
Nature of the experiment: flow cytometry, cell-cell interaction: B7-2-GFP CHO cells and hCTLA-4 Y201V-OFP 293T cells co-incubated at 4 °C for 2 h [h].

In experiment [3] the target is T3, mouse B7-2 expressed on cells (CHO cells; mouse leukocytes) (mouse, UniProt P42082 24-309).
T3 construct: whole, on cells; also called mB7-2
T3 sequence (looked up): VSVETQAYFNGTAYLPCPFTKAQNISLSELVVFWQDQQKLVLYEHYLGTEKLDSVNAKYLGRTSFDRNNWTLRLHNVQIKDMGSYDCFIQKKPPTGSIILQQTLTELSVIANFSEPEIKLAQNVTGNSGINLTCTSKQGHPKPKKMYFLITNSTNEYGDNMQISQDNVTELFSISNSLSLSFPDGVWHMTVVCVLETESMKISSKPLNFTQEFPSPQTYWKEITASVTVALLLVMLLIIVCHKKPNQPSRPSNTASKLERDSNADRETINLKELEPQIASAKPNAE
The experiment in a line: flow cytometry, dissociation time course: biotinylated CTLA-4-Fc 200 ng/test on CHO cells expressing mB7-2, washed, kept in DPBS, PE-streptavidin.

The next experiment deals with T4, human B7-2-Fc (human, UniProt P42081 24-245, limits assumed).
T4 construct: Bought; also called hB7-2-Fc; not shown: Fc part; not described
T4 sequence (looked up): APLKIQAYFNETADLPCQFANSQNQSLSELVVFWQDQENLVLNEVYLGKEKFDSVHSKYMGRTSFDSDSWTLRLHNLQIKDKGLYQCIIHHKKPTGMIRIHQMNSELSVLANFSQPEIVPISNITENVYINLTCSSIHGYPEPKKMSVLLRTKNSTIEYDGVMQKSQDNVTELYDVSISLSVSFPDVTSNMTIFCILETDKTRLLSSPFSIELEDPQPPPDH
Nature of the experiment: ELISA: hB7-2-Fc coated, biotinylated hCTLA-4-Fc varied, with 100 µg/ml hIgG-Fc.

B1: OFP-tagged human CTLA-4 Y201V on HEK293T cells (receptor)
chain: not shown
notes: whole, on cells; also called CTLA-4^Y201V-OFP; hCTLA-4^Y201V-OFP-293T; not shown: OFP tag
In the case of B1, the binding result in experiment [1] and in experiment [2] was “binds” throughout.

B2: human CTLA-4-Fc (Fc fusion)
chain: not shown
notes: Bought; also called hCTLA-4-Ig; biotinylated CTLA-4-Fc; not shown: Fc part; not described
Take B2: the binding result in experiment [3] is on record as “binds”. For the same molecule, the “EC50 (read off the curve)” value with human B7-2-Fc was roughly 0.02 µg/mL.
